Some of the results follow. At the low end of the ranking, values are background and their order means little. The protein was read in a cell extract, so binding may be indirect.

The target in this test is T1, HNF4alpha2 (COS-7 nuclear extract) (UniProt P41235).
T1 sequence: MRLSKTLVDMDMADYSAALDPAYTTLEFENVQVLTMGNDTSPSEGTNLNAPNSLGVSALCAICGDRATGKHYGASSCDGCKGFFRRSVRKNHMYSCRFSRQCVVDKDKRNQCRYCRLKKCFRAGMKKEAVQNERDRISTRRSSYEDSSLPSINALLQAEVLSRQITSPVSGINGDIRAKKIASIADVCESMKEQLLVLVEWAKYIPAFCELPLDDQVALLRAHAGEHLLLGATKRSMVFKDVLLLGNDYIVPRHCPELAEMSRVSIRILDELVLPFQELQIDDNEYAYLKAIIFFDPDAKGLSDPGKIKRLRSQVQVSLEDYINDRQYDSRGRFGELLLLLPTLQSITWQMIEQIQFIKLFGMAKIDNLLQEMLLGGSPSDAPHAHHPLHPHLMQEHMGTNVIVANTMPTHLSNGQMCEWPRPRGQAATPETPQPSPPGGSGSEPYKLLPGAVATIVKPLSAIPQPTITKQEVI
Nature of the test: protein-binding microarray. The settings on record: COS-7 nuclear extract on double-stranded Agilent 4x180k PBM; binding buffer, salt, pH and temperature not given; high values mean tight binding; double strand, one strand shown; sequences stand for … in …GCCTAGGGAGATTAGAGTATCGGTCGA
CCAACTAGAATGGAACTGAAGGCAGGAAAG: the binding signal (log2 normalized intensity) was -1.13.
For the sequence TTACCCTGCAGTGTGACCTTTGCCTTCTTG, the binding signal (log2 normalized intensity) was found to be 7.49.
As to ATTCCCGCCGCCTCCGCTGGGGGACGCGAC, the binding signal (log2 normalized intensity) was -1.21.
Under TGGTAAAGATGACCAGCGTGTGGCGCCATT stands -1.04.
Next, AGTGTACGTTGTACCCCACAGGTATTCTTT: 2.03; TGCTGATAAAGGGTGTGAGAGAGAAGGCAA: -1.01; GAGTTACACTATCGGCTTCCCTGGTCCTCA: -1.09.
Take CCTGCCTTTGTATAAGCCGTGCAAAGTTCA: the binding signal (log2 normalized intensity) was found to be 3.81.
Under CAAAGATAAGAAAAAAACAGCACAAAAATG stands -1.12; under CACCACAAGTTTGAACTGCACAGGCCTACT, -1.19; under GCAAGATAATGTCAAAAATCTTAAGGAGGA, -0.545.
For TCTCTAGAATGAGCCTCTTCTTTAATAAGA, the binding signal (log2 normalized intensity) is -1.13.
Under AGTTTATCGAAAATCCCCCACCATTGTTAT stands 3.85.
Regarding CAACAGGGTTAAAAGCAAACCAAAAAGTTG, the binding signal (log2 normalized intensity) was -1.25.
Under GCTACTGCTCCACCTTTGAAATCTCAAATA stands -0.957.
Consider AAAAATGATGCTACTGGAGGTATAATATCT, for which the binding signal (log2 normalized intensity) was 0.279.
ACTCCCTTAAATAATGCATACGCTAGCTTT: the binding signal (log2 normalized intensity) was -1.1.
For the sequence AGAGTTTTAAAGTATCCCATCCATTTCCCA, the binding signal (log2 normalized intensity) stood at 1.45.
In the case of GGAGGACCTCTGGATTACATACCCAAGTTC, the binding signal (log2 normalized intensity) was -1.01.
On to CACTGTCTCAGGGTCCACATTCCAGGAATA, for which the binding signal (log2 normalized intensity) is 1.77.
In the case of TAGACCAGCCAATTCTACTGGAAGTAGGTA, the binding signal (log2 normalized intensity) was 0.854.
Next, ATAACACCTATGTGCAAAATACCTGGAAGT: -0.17; GATCAAAAACTGCCTAAATCCAAAGGGCAT: 1.31; TTCAATATACAGTTGGTATTTAGTAAATAT: 1.88.
With GGCAAAGGTCACAGCATTAGAGCAACCAGA, the binding signal (log2 normalized intensity) is -1.08.
Next, ACTCAATGCTGCTGATGCAGAGGGTGCAAA: 0.179; TTTTTTTTTTGAGATGGAATCTTGCCCTGT: 3.18.
Under TCATAAAACACCCACCTTGTTATCTTGTCT stands 1.64; under GCATGAGACTGAAATTCCTTGACCCTGAAA, 1.39; under CTCACACACACACACACACAGCTTGGAGCT, -1.13.
Next, GAGAATTAAACTGCCGCGCCACTGCGTCCA: -1.
Consider TTTGACATCACCTAACTTGTGGCTGGGTGA, for which the binding signal (log2 normalized intensity) came to 0.943.
Under CAGCTAGTGAGATACGGCCTGGACTCCAAG stands 0.767; under GCTCACTCCTGGGACAAGGACTTTGGCTAG, 2.6; under GTCTAAAGTTCAGTGAGATTAGGAAGTGTG, 1.75.
TTTGGAAAATATTGCCAATATCTGCCATCT: the binding signal (log2 normalized intensity) is -1.17.
Under CTGAACCTTGGATCTCCTGCACCTGAACTT stands 1.96; under TCTTAGCCATGTTCTCTAGAAACAGAGCCC, -1.08.
CAGCACTCTCTGATTACACAGGCCTTATAG: the binding signal (log2 normalized intensity) is -0.632.
Under CTTAGATAGCAGTGTGAGTGTCAGAGGCTA stands -0.858; under AGAATCTTATCAGCAGATAAGGGCAGAGAG, -0.591.
Consider CCCAACAGACTTTCCCCCTATTTCCCTCTG, for which the binding signal (log2 normalized intensity) was determined as 2.54.
Next, TTTGTTGTTGAGCAAATCATAGTGTTTCTT: 0.883; ATTAACACAGCTCTAGAGGGCTGCTTATCT: -1.16.
Under GAAGAATCTGTATCAGCCTGTGACAAAGTC stands -0.808; under GGACGCTTTAGAGAAACGCACTCGCCTCTC, -1.11.
Next, AAAAGAAAGCCCATTAAATCTTCCCTCCTG: -1.14; TATCATCTTCCCTGTTCAAACTAAACCTAA: -1.18; TTGATCAGCATTCAAATGAGGGCAGGATGC: -0.174.
With ATCACAAACTTTAGTAGTCCAAAGCTCAGA, the binding signal (log2 normalized intensity) was 0.282.
On to CTATCTGCTGGGGGCTGGGCCCCACAGTGC, for which the binding signal (log2 normalized intensity) was -1.1.
Regarding GGCCCCAGGAGACCCCGCGAGACGGGTGCG, the binding signal (log2 normalized intensity) came out at 1.17.
Next, CTGCCCTTCGTCCTGAGCAGTCCCTTCCCC: 2.55.
Next, GACGCGCCGGCGCAGCCGCGCTCCGCCCCG: -1.05.
Under TAGGGGTGGGATGGGGAGCAGTGGGAGGTG stands -1.11.
CCCTGGGGAAGGCAGGTCTCTCTCATTCAC: the binding signal (log2 normalized intensity) is -0.807.
Next, TGGATACAGGGTAGGGCCAACCAACCCAAC: -1.15; TGAAGGTAGGACAGGGTGATCAGAGATCTA: -1.12.
Consider TCAAGTGATCGAAGGTCAACTTATCAGCAT, for which the binding signal (log2 normalized intensity) worked out at 3.19.
Consider GGGACAAGCACATTAGGAGGAAAAAGAATG, for which the binding signal (log2 normalized intensity) is -1.13.
With ATAAATAAAGCCCTGGGGTAATAAAAGTGT, the binding signal (log2 normalized intensity) is -0.0726.
GGCCGCTCTCCCTCCAGGCCCCAGCCACGC: the binding signal (log2 normalized intensity) is 2.21.
On to TTATGGCCACTGTGTGTGTGTGTGTGTCTG, for which the binding signal (log2 normalized intensity) turned out to be 2.84.
Take AGTCCAAGTTCCACATCAAGCACATTCCAG: the binding signal (log2 normalized intensity) was -1.06.
With TCAGGAGAGCATCTGAGTGTCAAAAACAAT, the binding signal (log2 normalized intensity) is -0.512.
Next, GGTGGGCTGCTCCCAGTGCCCTTTGAACTC: 8.32; GCCCTTAAAGGCTTTTGCAAGAAAACCAGC: -1.14; TGGGAATGGAGAGAGAGAGAATAGCTCAGG: -1.26.
Under TTACAAGGAGATATGCACTTGCCCTTTGGT stands 3.77; under TGGCAAAGCTATTCACTTTTTGGCCTTTGG, 3.25.
With GTGCCCTCATAAGAGACTTTGCCCTTTTTT, the binding signal (log2 normalized intensity) was 5.63.
On to GGAGAGGTGGAGAAAGGCAGAAGGTTCCAG, for which the binding signal (log2 normalized intensity) was -0.945.
As for AAGATGACCAGCGTGTGGCGCCATTTCAGG, the binding signal (log2 normalized intensity) was -1.12.

The values are drawn from PMC10726135.
